# The campaign covered roughly 310,000 compounds. About 2,200 (0.71%) showed an effect of 50% or more. The effect is printed as a negative number. The list shows a part of the results.
# Target: human ether-à-go-go-related gene (hERG) potassium channel (human, UniProt Q12809)
# Experiment: primary screen, population patch clamp on CHO cells stably expressing hERG
# Chain of human ether-à-go-go-related gene (hERG) potassium channel (Q12809 whole entry, looked up): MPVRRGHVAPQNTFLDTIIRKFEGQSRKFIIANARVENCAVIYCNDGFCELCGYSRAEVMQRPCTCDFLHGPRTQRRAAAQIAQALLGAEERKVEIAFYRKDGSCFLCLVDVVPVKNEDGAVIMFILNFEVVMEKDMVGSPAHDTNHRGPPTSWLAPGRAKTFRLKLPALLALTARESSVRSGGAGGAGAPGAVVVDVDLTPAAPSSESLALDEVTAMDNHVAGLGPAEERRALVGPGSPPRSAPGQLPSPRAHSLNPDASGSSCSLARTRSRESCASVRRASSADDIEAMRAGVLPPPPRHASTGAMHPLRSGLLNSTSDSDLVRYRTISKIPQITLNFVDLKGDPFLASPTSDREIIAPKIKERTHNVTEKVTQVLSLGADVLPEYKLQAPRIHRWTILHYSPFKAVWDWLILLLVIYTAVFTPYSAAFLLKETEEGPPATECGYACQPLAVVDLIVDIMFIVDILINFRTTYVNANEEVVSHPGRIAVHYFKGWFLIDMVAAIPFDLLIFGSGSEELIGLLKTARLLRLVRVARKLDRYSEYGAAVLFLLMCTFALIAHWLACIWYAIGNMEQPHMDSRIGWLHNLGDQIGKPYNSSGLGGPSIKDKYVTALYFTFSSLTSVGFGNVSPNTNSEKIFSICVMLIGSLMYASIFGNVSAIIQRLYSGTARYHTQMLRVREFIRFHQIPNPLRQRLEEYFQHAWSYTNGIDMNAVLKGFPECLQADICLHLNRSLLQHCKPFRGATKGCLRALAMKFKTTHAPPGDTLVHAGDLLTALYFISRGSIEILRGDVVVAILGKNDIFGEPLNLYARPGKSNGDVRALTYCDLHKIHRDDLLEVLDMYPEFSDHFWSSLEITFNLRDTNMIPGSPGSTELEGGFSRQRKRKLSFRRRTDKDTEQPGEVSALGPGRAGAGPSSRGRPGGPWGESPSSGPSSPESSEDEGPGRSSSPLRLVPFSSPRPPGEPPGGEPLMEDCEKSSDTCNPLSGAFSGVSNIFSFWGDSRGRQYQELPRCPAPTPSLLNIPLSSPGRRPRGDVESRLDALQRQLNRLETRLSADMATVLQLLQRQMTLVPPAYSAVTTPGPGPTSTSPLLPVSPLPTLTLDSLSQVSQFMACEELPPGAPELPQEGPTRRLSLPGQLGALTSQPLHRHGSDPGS
row,SMILES,"hERG current change (%, negative = inhibition) at 1uM [%]"
1,CC[C@H](C)[C@@H](CN[C@H](CCCCNC)CNC)NCC1CCCC1,17.5
2,COc1ccc(S(=O)(=O)Nc2ccc(N3CCOCC3)cc2)cc1,11.4
3,CCCc1cc(=O)oc2cc(OCC(=O)NCC3CCC(C(=O)O)CC3)ccc12 (stereo not drawn),-6.33
4,CC1CC(C)CN(CCCn2c(=S)[nH]c3ccccc3c2=O)C1 (stereo not drawn),-34
5,COc1ccc(CC(=O)Nc2ccc(S(=O)(=O)Nc3cc(C)on3)cc2)cc1OC,10.3
6,CCC(=O)Nc1cccc(-c2nc3ccccc3o2)c1,14.3
7,O=C(NC1CC1)C1=C[C@@H](c2csc3ccccc23)C[C@@H](OCc2ccc(CO)cc2)O1,11.3
8,CC(NC(=O)c1cccc(S(=O)(=O)N2CCN(Cc3ccccc3)CC2)c1)c1ccc(Br)cc1 (stereo not drawn),-10.9
9,Cc1ccc(CNC(=O)c2cc3c(s2)CN(Cc2ccccc2)C3)cc1.Cl,10.6
10,O=C1CSCC(=O)N1Cc1ccc(Cl)cc1Cl,12
11,Cc1c(Cc2ccccc2)sc(NC(=O)/C=C/c2cccc3ccccc23)c1C(N)=O,10.9
12,O=C(c1ccc(NC2=NC3CS(=O)(=O)CC3S2)cc1)N1CCN(c2ccc([N+](=O)[O-])cc2)CC1 (stereo not drawn),4.27
13,CCOC(=O)c1c(NC(=O)C2C3CCC(O3)C2C(=O)O)sc(C)c1-c1ccc(C)cc1 (stereo not drawn),5.35
14,CC(C)CN(Cc1c(O)ccc2c(=O)c(-c3ccccc3)coc12)CC(C)C.Cl,12.3
15,COc1cc(C(=O)NCC(=O)N/N=C/c2ccccn2)cc(OC)c1OC,8.11
16,O=C(O)C1=C(Nc2ccccc2)OCC1=O,14.9
17,CCOc1cc(C(=O)NC(=S)Nc2nc(C)cc(C)n2)cc(OCC)c1OCC,8.58
18,O=C(Nc1ccc(N2CCOCC2)cc1)c1ccc(COc2ccccc2)cc1,13
19,CCOC(=O)c1cc(S(=O)(=O)NCC2CCN(Cc3cccc(C)c3)CC2)cn1C,8.79
20,CC(=O)C1C(c2ccc(F)cc2)NC(=O)NC1(O)C(F)(F)F (stereo not drawn),2.82
21,CCOc1ccc(S(=O)(=O)Nc2ccc(C(=O)N3CCCC3)cc2)cc1C(N)=O,12.1
22,CCOc1ccc(Br)cc1S(=O)(=O)Nc1ccc(N2CCOCC2)cc1,9.4

row,SMILES,"hERG current change (%, negative = inhibition) at 1uM [%]"
1,CSc1ccc(-c2sc(Nc3cccc4ccccc34)n[n+]2-c2ccccc2)cc1.[Cl-],17.1
2,COc1ccc(C(=O)Cn2nnc(-c3ccccc3F)n2)cc1,9.91
3,CC1CCCCN1C(=O)C(=O)c1cn(CC(=O)N2CCCCCC2)c2ccccc12 (stereo not drawn),9.15
4,Nc1nc(CSCc2ccccc2)nc(N2CCOCC2)n1,-4.95
5,O=C(Nc1ccccc1Cl)C1CC(=O)n2c(nc3ccccc32)N1 (stereo not drawn),17.1
6,Cc1ccc(N2C(=O)N(CC(=O)NC(N)=O)C(=O)C2C)cc1 (stereo not drawn),4.51
7,COC(=O)C1=C(C(=O)OC)SC(=C2C(=S)C(C)(C)N(C(=O)CC(C)C)c3ccccc32)S1,1.9
8,O=[N+]([O-])c1ccc(NCCCNS(=O)(=O)c2ccccc2)c(Cl)c1,10.1
9,CSc1sc(C)cc1/C=N/O,14.3
10,CCN1C(=O)/C(=C\c2cccs2)C(C(=O)OC)=C1C,16.2
11,C=CCOc1ccc(CN(C)C(=O)c2ccc(CNS(=O)(=O)c3ccc(C)c(C)c3)cc2)cc1,5.4
12,COCCNC(=O)c1cn(CCOC)c(=O)c2c1c1ccccc1n2C,8.33
13,Cc1c(C(=O)OCC(=O)N2C(C)CCCC2C)oc2ccccc12 (stereo not drawn),8.78
14,Cc1cccc(OCc2ccc(C(=O)Nc3ccc(F)cc3)cc2)c1,20
15,CCOCCCNC(=S)NCCCNc1nc2cc3c(cc2cc1C#N)OCO3,13.4
16,O=C(NCc1cccs1)C1(S(=O)(=O)c2ccccc2)CC=CC1,3.93
17,O=C(c1cc(C(=O)NCc2ccc(Cl)cc2)c(=O)n(Cc2ccc(Cl)cc2)c1)c1cc(F)ccc1O,10.5
18,COc1ccc(C2C3=C(CCCC3=O)Nc3n[nH]c(C)c32)cc1OC (stereo not drawn),9.56
19,Cc1ccc(Cn2c(=S)[nH]c3ccc(N4CCOCC4)cc3c2=O)o1,0.14
20,O=C(CCn1c(=O)oc2ccccc21)NCc1ccc2c(c1)OCO2,8.18
21,Cc1ccc(-c2csc3ncnc(Nc4ccc(N5CCOCC5)cc4)c23)cc1.Cl,8.54
22,Cc1ccc(-c2nc(SCC(=O)NCC3CCCO3)c(-c3ccc(C)cc3)[nH]2)cc1 (stereo not drawn),20.1

row,SMILES,"hERG current change (%, negative = inhibition) at 1uM [%]"
1,Cc1ccc(S(=O)(=O)N2CCCC(C(=O)NCc3ccccn3)C2)cc1 (stereo not drawn),6.86
2,O=C(C1=C(O)C(=O)N(CCN2CCOCC2)C1c1cccnc1)c1cc2ccccc2o1 (stereo not drawn),5.37
3,CC(=O)Nc1ccc(C(=O)N2CCN(C(=O)c3ccco3)CC2)cc1,5.59
4,O=c1c2ccc(Cl)cc2[nH]c(=S)n1CCC1=CCCCC1,13.8
5,CCOc1cc(C(=O)O)cc(Cl)c1OC,15.4
6,CCOC(=O)N1CCN(c2c(NCCCN3CCCC(C)C3)c(=O)c2=O)CC1 (stereo not drawn),7.26
7,NC(=O)C1CCN(c2cc(Cl)nc(N)n2)CC1,15.1
8,CNC(=O)C(=O)Nc1cc2c3c(c1)CCN3C(=O)CC2,30.1
9,Cc1ccc(SCCC(=O)Nc2c(C)n(C)n(-c3ccccc3)c2=O)cc1,11.1
10,CCCC(=O)NC(=S)Nc1ccccc1F,15.2
11,CCOc1ccc(CCNC(=O)CCCn2nc(C)c3c(C)n(-c4ccccc4)nc3c2=O)cc1,12.2
12,Cc1cccc(NC(=O)CNC(=O)CN2C(=O)NC3(CCCc4ccccc43)C2=O)c1C (stereo not drawn),14.1
13,COc1cc2c(cc1OC)C(C(=O)N1CCN(c3ccccn3)CC1)C(c1cccs1)N(C)C2=O (stereo not drawn),-5.59
14,CC(C)(C)C(=O)Nc1cc2c3c(c1)CCC(=O)N3CCC2,13.2
15,CNC(=O)COc1ccc(Cl)c2cccnc12,19.6
16,CCS(=O)(=O)c1ccc(O)c(NC(=O)Nc2cccc3ccccc23)c1,9.44
17,CCCCOc1ccc(CN(C)c2ncnc(N)n2)cc1,-1.16
18,O=C(c1noc2c1CSc1ccccc1-2)N1CCN(c2ccc(Cl)cc2)CC1,14.1
19,CCc1ccc(S(=O)(=O)Nc2cccc(C3OCCCO3)c2)cc1,12.4
20,CCN(CC)S(=O)(=O)c1cc(NS(=O)(=O)c2cccc(C(=O)O)c2)ccc1C,11.8
21,COc1ccc(Cl)cc1NC(=O)COC(=O)c1c(-c2ccccc2)noc1C,-2.57
22,Cc1ccc(S(=O)(=O)N[C@@H](Cc2ccccc2)C(=O)CCl)cc1,-1.13

row,SMILES,"hERG current change (%, negative = inhibition) at 1uM [%]"
1,CC1CN(c2cc(=O)n(-c3cccc(Br)c3)c(=O)[nH]2)CC(C)O1 (stereo not drawn),10.5
2,Cc1ccc([N+](=O)[O-])cc1S(=O)(=O)n1ccnc1C,20.4
3,Cc1ccc(NC(=O)CN(C)CC(=O)N(C)Cc2ccccc2)cc1,-17.2
4,Cn1nc(-c2ccccc2)cc1NC(=O)Nc1ccccc1F,6.83
5,O=C(O)C1C2C=CC(C2)C1C(=O)Nc1cccc(C(F)(F)F)c1 (stereo not drawn),10.6
6,COc1ccccc1CNC(=O)C1CCCN(S(=O)(=O)c2c(C)[nH]c(=O)[nH]c2=O)C1 (stereo not drawn),13.2
7,N#Cc1ccc(CN(c2ccncc2)S(=O)(=O)c2ccccc2)cc1,13.1
8,Cc1noc(C)c1C(=O)OCC(=O)Nc1cc(S(=O)(=O)N2CCOCC2)ccc1Cl,-14.2
9,Nc1nc(SCC(=O)Nc2ccc([N+](=O)[O-])cc2)n[nH]1,-0.763
10,CCOC(=O)c1nn(-c2ccc(C)cc2)c(=O)cc1OCC(=O)N1CCN(c2ccccc2)CC1,11.5
11,COc1ccc(C(=O)N/C(=C\c2ccccc2)C(=O)Nc2ccc(C(=O)O)cc2)cc1,13.4
12,CCN1CCN(c2sc(S(C)(=O)=O)nc2S(=O)(=O)c2ccc(C)cc2)CC1,9.75
13,CCOC(=O)c1cc(-c2cccs2)nc2c1c(C)nn2-c1ccccn1,9.39
14,O=C(CSc1ccccc1)Nc1ccc(NC(=O)c2ccco2)cc1,6.49
15,CCN(CCCNC(=O)CC1Oc2ccc(C)cc2NC1=O)Cc1ccccc1 (stereo not drawn),-31
16,O=[N+]([O-])c1ccc(N2CCN(Cc3ccncc3)CC2)cc1,-44.5
17,O=C(c1ccncc1)N1N=C(C2CCCCC2)CC1(O)C(F)(F)F (stereo not drawn),11
18,CCOC(=O)Cc1cnc(N)s1,5.4
19,Cc1cc(-c2nnc(SCc3cccnc3)o2)no1,3.04
20,CNC(=S)N1CCN(c2ccc([N+](=O)[O-])cc2)CC1,-40.5
21,COc1ccccc1-n1cc(C(=O)NCC(=O)N2CCN(c3ccccn3)CC2)c2ccccc2c1=O,-5.71
